Reference: PubChem BioAssay AID1240 (Sanford-Burnham Center for Chemical Genomics, 2008)
Among all 50,000 compounds or so, about 800 (1.6%) showed an effect of 50% or more. Some of the results follow.

target: Bcl-2-like protein 10 (Homo sapiens) (UniProt Q9HD36); assay: TR3 peptide-Bcl-B binding displacers, biochemical primary FP assay, phenotype converters (AID 1240); conditions: GST-Bcl-B / FITC-TR3 peptide fluorescence polarization; stronger effect = higher value; compound at 3.75 mg/L;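 note: 0% = Bcl-B with tracer peptide and DMSO and 100% = tracer peptide lacking Bcl-B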
Chain of UniProt Q9HD36 (Q9HD36 whole entry, looked up): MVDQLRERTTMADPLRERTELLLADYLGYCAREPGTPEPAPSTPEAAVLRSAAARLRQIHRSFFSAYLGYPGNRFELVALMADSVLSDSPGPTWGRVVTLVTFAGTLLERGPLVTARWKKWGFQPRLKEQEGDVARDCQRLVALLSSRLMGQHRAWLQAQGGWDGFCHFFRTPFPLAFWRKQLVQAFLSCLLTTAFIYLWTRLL

Row | Structure (SMILES) | displacement [%]
1 | COc1ccc(C2CC(c3ccc(F)cc3)=NN2c2ccccc2)cc1OC (centres undefined) | 64.4
2 | COc1ccc(/C(C)=N/NC(=O)c2cc(C34CC5CC(CC(C5)C3)C4)[nH]n2)cc1 | -1.3
3 | O=C(/C=C/c1ccco1)NC(=S)NCc1ccccc1 | 11.6
4 | CCCC(C)NS(=O)(=O)c1ccccc1 (centres undefined) | -12.3
5 | COc1ccc(Br)cc1/C=C/C(=O)Nc1ccc(N2CCCCC2)cc1 | -0.7
6 | Cc1ccc(N2C(=O)NC(=O)/C(=C\c3cccs3)C2=O)cc1C | -5.2
7 | CC(C)COc1ccc(C(=O)NCC2(c3ccccc3)CCCC2)cc1 | -18.7
8 | Brc1ccccc1-c1nc2ccccc2[nH]1 | 4.1
9 | CCC(C)NC(=O)c1c(-c2ccccc2Cl)noc1C (centres undefined) | -2.2
10 | COc1ccc(C(=O)NCCSc2ccc(C)cc2)cc1OC | 0.5
11 | COc1ccccc1N1C(=O)CC(N2CCN(c3ccccn3)CC2)C1=O (centres undefined) | -26.1
12 | CCN(CC)COc1ccc2occ(C(=O)c3cc(OC)ccc3OC)c2c1 | 6.7
13 | Cn1c(O)c(C=NCC2CCCO2)c(=O)n(C)c1=O (centres undefined) | -3.5
14 | N#Cc1ccc(-c2ccccc2)[nH]c1=S | -5.4
15 | O=C(O)C1C2C=CC3(CN(Cc4ccccc4)C(=O)C13)O2 (centres undefined) | 4.4
16 | CC(=O)C(=Nc1ccc(C)cc1C)NNc1cc(C(N)=O)c(Cl)cc1Cl | 3.9
17 | COc1ccc(-n2cnc(/N=C/N(C)C)c2C(=O)c2cccc([N+](=O)[O-])c2)cc1 | -6.1
18 | NS(=O)(=O)c1cccc(NC(=O)COc2ccccc2[N+](=O)[O-])c1 | 6.5
19 | Cc1[nH]c2ccccc2c1/C=N/NC(=O)c1ccc(O)cc1O | -1.7
20 | Cc1cc(NC(=O)c2ccc(Oc3ccc([N+](=O)[O-])cc3)cc2)no1 | 6
21 | Cc1ccc(C2CC(C(F)(F)F)n3nc(C(=O)Nc4ccc(F)cc4F)cc3N2)cc1 (centres undefined) | 0.7
22 | COC(=O)c1ccccc1NC(=O)CSC(N)=O | 3.5

Row | Structure (SMILES) | displacement [%]
23 | O=C(N/N=C/c1ccc(Br)s1)Nc1ccccc1 | 2.2
24 | Cc1cc(OCC(=O)Nc2cccc(I)c2)cc(C)c1Cl | -0.6
25 | COc1ccc(N2C(=O)c3ccc(C(=O)Nc4cccc(O)c4)cc3C2=O)cc1 | -2
26 | COc1cc(NC(=O)c2cnn3c2NC(c2ccco2)CC3C(F)(F)F)c(OC)cc1Cl (centres undefined) | 7.7
27 | Cc1cccc(N2C(=O)CC(n3c(C)nc4ccccc43)C2=O)c1 (centres undefined) | 11.7
28 | Cc1ccc(CCC(=O)Nc2ncc(Cc3ccc(Cl)cc3Cl)s2)o1 | 13.8
29 | CCOC(=O)C(CCCCOc1ccccc1F)C(=O)OCC | -4
30 | O=C(CCc1ccccc1)Oc1ccc(Cl)cc1 | -7.7
31 | COc1cc(C(=O)n2nc(C)c(Sc3ccccc3[N+](=O)[O-])c2C)cc(OC)c1OC | -13.2
32 | COc1ccc(C2=C/C(=C/c3ccc(Cl)cc3)C(=O)O2)cc1OC | 105
33 | Cc1cccc(NC(=O)COc2ccc3ccccc3c2)c1C | 6.1
34 | CC(C)c1cccc(C(C)C)c1NC(=O)COc1cccc(Br)c1 | 12.8
35 | COC(=O)c1cc(NC(=O)CCCOc2ccc(Cl)cc2C)cc(C(=O)OC)c1 | -4.8
36 | Cc1ccc([N+](=O)[O-])cc1NC(=O)C1C2C3CCC(C3)C12 (centres undefined) | 11.6
37 | CCOC(=O)C(CCOCCOc1c(C)cc(C)cc1C)C(=O)OCC | -7.7
38 | CS(=O)(=O)N(Cc1ccccc1)c1ccccc1C(=O)N[C@H]1C[C@@H]2CC[C@H]1C2 | 15
39 | COc1cc(C2/C(=C(\O)c3ccccc3)C(=O)C(=O)N2CCN(C)C)ccc1O (centres undefined) | -2.5
40 | COc1ccc(C2/C(=C(/O)c3ccccc3)C(=O)C(=O)N2c2cccc(Br)c2)cc1OC (centres undefined) | -8.8
41 | O=C(CCNc1ccc(F)cc1)c1cccc([N+](=O)[O-])c1 | 11.2
42 | O=C(COc1ccc(Cl)cc1Cl)NCCCOCC(=O)Oc1ccc(Cl)cc1Cl | -6.7
43 | Cc1cc(Br)ccc1OCC(=O)O/N=C(\N)c1ccccn1 | 11.1
44 | COc1cc(/C=N/Nc2nc(N3CCOCC3)nc(N3CCOCC3)n2)ccc1OC(=O)c1ccco1 | 8.3

Row | Structure (SMILES) | displacement [%]
45 | COc1ccc(S(=O)(=O)CCc2nc3ccccc3o2)cc1 | -1.6
46 | CN(C)CCCNCCCc1ccc(C(C)(C)C)cc1 | -2.2
47 | COc1ccc(N(CC(=O)NC(C)c2ccccc2)S(C)(=O)=O)c(OC)c1 (centres undefined) | 6.6
48 | O=C1C=C/C(=N\S(=O)(=O)c2cc(Cl)ccc2Cl)C=C1Cl | 21.8
49 | COc1cc(/C=N\NC(=O)c2cccc3ccccc23)ccc1O | 8.8
50 | O=C1c2ccccc2C(=O)N1CC(O)Cn1c2ccc(Cl)cc2c2cc(Cl)ccc21 (centres undefined) | 5.3
51 | CCOC(=O)C1=C(C)NC2=C(C(=O)CCC2)C1c1ccccc1[N+](=O)[O-] (centres undefined) | 19.4
52 | CC(/C=C/c1ccccc1)=N\N=C1\NC(=O)C(Cc2ccccc2)S1 (centres undefined) | -23.5
53 | O=C(COc1ccc2ccccc2c1)N1CCN(c2ccc([N+](=O)[O-])cc2)CC1 | -5.3
54 | CC(Oc1ccccc1)C(=O)Nc1ccc(Cl)c([N+](=O)[O-])c1 (centres undefined) | 5.6
55 | COc1ccc(-n2nc3cc(C)c(NC(=O)COc4ccccc4C)cc3n2)cc1 | 0.2
56 | O=C(O)c1ccccc1-c1ccccc1C(=O)Nc1ccccc1-c1ccccc1 | -9.6
57 | CCC1(C(=O)OCC(=O)c2ccc(Br)cc2)CCCCC1 | 6.6
58 | Cc1ccc2c(c1)-c1c(ssc1=S)C(C)(C)N2C(=O)C(C)N1C(=O)c2ccccc2C1=O (centres undefined) | 0.1
59 | CC1S/C(=N/N=C/c2ccc(Cl)cc2)NC1=O (centres undefined) | 2.7
60 | O=C(O)c1ccccc1-c1ccccc1C(=O)N1CCCCC1 | -13.7
61 | Cn1c(=O)c2c(ncn2CC(=O)Nc2ccc(OCc3ccccc3)cc2)n(C)c1=O | -6.6
62 | COc1ccc(OC)c(C2C(C(C)=O)=C(O)C(=O)N2c2nc3ccccc3s2)c1 (centres undefined) | -8.3
63 | CC(=O)Oc1ccc(-c2cccc(NC(=O)c3ccc4c(c3)Cc3ccccc3-4)c2)cc1 | 11.7
64 | C=CCn1c(-c2ccc(C(C)(C)C)cc2)n[nH]c1=S | -1.8
65 | O=c1c(/C=N/Nc2nc3ccccc3s2)c(C(F)(F)F)[nH]n1-c1nc2ccccc2s1 | -25.1
66 | CCOc1cccc(C(=O)Nc2nc3ccc(C)cc3s2)c1 | 10

Row | Structure (SMILES) | displacement [%]
67 | S=C(Nc1cccc(Cl)c1)N1CCOCC1 | -3.9
68 | COc1ccc(-n2nc3cc(C)c(NC(=O)c4cccnc4)cc3n2)cc1 | 5.1
69 | COc1cc(OC)cc(C(=O)Nc2cccc(-c3nc4ccccc4[nH]3)c2)c1 | -7.2
70 | COc1ccc(CCNC2CC(=O)N(c3ccc(Br)cc3)C2=O)cc1 (centres undefined) | -8
71 | Cc1ccc(S(=O)(=O)N2CCCC2C(=O)Nc2ccc([N+](=O)[O-])cc2)cc1 (centres undefined) | -6.6
72 | O=C1C2C(C(=O)N1c1ccc(Cl)cc1)C2(c1ccccc1)c1ccccc1 (centres undefined) | -10.2
73 | C(#Cc1ccccc1)CN1CCOCC1 | 2.4
74 | CCc1nccn1S(=O)(=O)c1ccc2ccccc2c1 | -3.4
75 | CCOC(=O)c1conc1-c1ccc(SC)cc1 | 6.5
76 | COc1ccc(CN2CCN(Cc3cc(OC)c(OC)c(OC)c3)CC2)cc1 | 2.4
77 | O=C(/C=C/c1ccccc1)NC(=S)Nc1ccc2oc(-c3cccnc3)nc2c1 | 2.7
78 | COc1ccc(C2NC(=O)NC(C)=C2C(=O)Nc2ccc(Cl)cc2)cc1 (centres undefined) | -5.4
79 | COc1ccccc1/C=C1\SC(=S)N(c2cccc(C(=O)O)c2)C1=O | -3.2
80 | O=C(Nc1ccc(Cl)cc1)Nc1nnc(C(c2ccccc2)c2ccccc2)s1 | -1.5
81 | CC1(C)CC(=O)C=C(Nc2ccc(NC3=CC(=O)CC(C)(C)C3)cc2)C1 | 5.5
82 | C#CCSc1nc2ccccc2c(=O)[nH]1 | -3.5
83 | CCC1=NN(C(=O)c2ccccc2)C(O)(c2ccc(Br)cc2)C1 (centres undefined) | 7.6
84 | CC(C)(C)c1cnnn1-c1ccc(N)cc1 | 2.9
85 | O=S1(=O)CCC(Oc2ccc(Br)cc2)C1 (centres undefined) | -2.2
86 | CCCOc1ccccc1/C=C1/C(=O)NN(c2ccccc2)C1=O | 10.6
87 | O=S(=O)(c1ccc(NC(=S)Nc2ccccc2)cc1)N1CCCCC1 | 5.3
88 | COC(C(=O)N/N=C/c1cc([N+](=O)[O-])ccc1Cl)c1ccccc1 (centres undefined) | 7.1

Row | Structure (SMILES) | displacement [%]
89 | O=C1c2ccc([N+](=O)[O-])cc2C(=O)N1c1cccnc1 | 5.9
90 | Cc1ccc(C23CC4CC(CC(C(=O)O)(C4)C2)C3)cc1 | 12.4
91 | O=C(/C=C/c1ccc2c(c1)OCO2)NCc1ccc(Cl)cc1Cl | -6.5
92 | CN1C(=O)CC(N2CCN(C/C=C/c3ccccc3)CC2)C1=O (centres undefined) | -11.7
93 | FC(F)(F)c1ccc2nnc(-c3c(Cl)cccc3Cl)n2c1 | 6.6
94 | O=C(Nc1nc(-c2ccc(F)cc2)cs1)c1ccccc1[N+](=O)[O-] | 8.9
95 | O=C1c2cccc3c([N+](=O)[O-])ccc(c23)C(=O)N1Cc1cccnc1 | 37.7
96 | Cc1ccc(-c2cc(OC(=O)c3ccccc3)cc3sc(=O)oc23)cc1 | 1
97 | COC(=O)C1=NNC2C(=O)N(c3cccc(C)c3)C(=O)C12 (centres undefined) | -4.8
98 | Cc1cc(=O)oc2cc(OCc3ccc(Cl)c(Cl)c3)ccc12 | 8.6
99 | O=C(Nc1nccs1)c1cccc(N2C(=O)c3ccc([N+](=O)[O-])cc3C2=O)c1 | 11.2
100 | CC(/C=C/c1ccc(I)cc1)=C\C(=O)O | 1.5
101 | COc1ccc(N2C(=O)C3C(C2=O)C2C=CC3C23CC3)c([N+](=O)[O-])c1 (centres undefined) | 14.6
102 | O=C(NOC(=O)c1ccc(Cl)cc1Cl)c1ccc(Cl)cc1 | 4.5
103 | C#CCOC(=O)C(C=C=C)(C(=O)OCC)C(F)(F)F (centres undefined) | 0.2
104 | CCCOC(=O)/C(C(N)=NCCO)=C(/O)OCCC | -10.3
105 | C/C(=N\NC(=O)c1ccc(C(C)(C)C)cc1)c1ccc(C)o1 | 8.1
106 | CC(=O)NC1=NC(=O)/C(=C\c2ccc(Br)o2)S1 | 1.4
107 | O=C(c1cccc(F)c1F)N1CCN(c2cc(N3CCOCC3)c(F)cc2[N+](=O)[O-])CC1 | -12.7
108 | CCCn1c(C(O)c2ccc(OCc3ccccc3)c(OC)c2)nc2ccccc21 (centres undefined) | -4.1
109 | CCOC(=O)C1=C(C)N=c2s/c(=C\c3ccc4c(c3)OCO4)c(=O)n2C1c1ccc2c(c1)OCO2 (centres undefined) | 3.5
